Drawing on the supplement of paper PMC4604168 (melanoma cell lines), this text covers cell count for twelve molecules.

The other results are listed elsewhere or left out. Single values are uncertain, as repeats are few or missing.
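Note: cells treated in 1,536-well plates, then fixed and DAPI-stained, with nuclei counted from automated high-throughput microscope images.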

In this test the test system is A2058. Put plainly: cell count relative to DMSO control; melanoma cells; higher = more viable cells. The settings on record: library dose: standard library concentration; 72 h.
With `N#CC[C@H](C1CCCC1)n1cc(-c2ncnc3[nH]ccc23)cn1` [ruxolitinib] + COc1ccc(Cl)c(Nc2nc3ccccc3nc2NS(=O)(=O)c2cccc(NC(=O)C(C)(C)N)c2)c1 [XL147] (first compound 5 µM, partner dose 4 µM), the cell count was 83.1%.

Molecule `N#CC[C@H](C1CCCC1)n1cc(-c2ncnc3[nH]ccc23)cn1` [ruxolitinib] + O=C(O)c1ccc(-c2c[nH]c3ncc(-c4ccccc4)cc23)cc1C1CCCC1 [GSK650394] (first compound 5 µM, partner dose 0.8 µM) gave a cell count of 63.3%.

With `Cc1cc(Nc2cc(N3CCN(C)CC3)nc(Sc3ccc(NC(=O)C4CC4)cc3)n2)n[nH]1` [Tozasertib] + NCC(=O)Nc1ccc(-n2nc(C(F)(F)F)cc2-c2ccc3c(ccc4ccccc43)c2)cc1 [OSU03012] (first compound 0.03 µM, partner dose 5 µM), the cell count was found to be 84.5%.

For the molecule `Cc1cc(Nc2cc(N3CCN(C)CC3)nc(Sc3ccc(NC(=O)C4CC4)cc3)n2)n[nH]1` [Tozasertib] + CCN(CC)CCNC(=O)c1c(C)[nH]c(/C=C2\C(=O)Nc3ccc(F)cc32)c1C [sunitinib] (first compound 0.03 µM, partner dose 2 µM), the cell count was determined as 51.1%.

In turn, `N#CC[C@H](C1CCCC1)n1cc(-c2ncnc3[nH]ccc23)cn1` [ruxolitinib] + CCCCCCCCc1ccc(CCC(N)(CO)CO)cc1 [fingolimod] (first compound 5 µM, partner dose 10 µM) showed a cell count of 8.8%.

As for `N#CC[C@H](C1CCCC1)n1cc(-c2ncnc3[nH]ccc23)cn1` [ruxolitinib] + CC(=O)c1c(C)c2cnc(Nc3ccc(N4CCNCC4)cn3)nc2n(C2CCCC2)c1=O [palbociclib] (first compound 5 µM, partner dose 0.2 µM), the cell count came out at 70.1%.

In turn, `N#CC[C@H](C1CCCC1)n1cc(-c2ncnc3[nH]ccc23)cn1` [ruxolitinib] + CC[C@]1(O)C[C@H]2CN(CCc3c([nH]c4ccccc34)[C@@](C(=O)OC)(c3cc4c(cc3OC)N(C=O)[C@H]3[C@@](O)(C(=O)OC)[C@H](OC(C)=O)[C@]5(CC)C=CCN6CC[C@]43[C@@H]65)C2)C1 [vincristine] (first compound 5 µM, partner dose 0.0005 µM) had a cell count of 59.5%.

`Cc1cc(Nc2cc(N3CCN(C)CC3)nc(Sc3ccc(NC(=O)C4CC4)cc3)n2)n[nH]1` [Tozasertib] + CN1CCN(c2ccc3nc(-c4c(N)c5c(F)cccc5[nH]c4=O)[nH]c3c2)CC1 [Dovitinib] (first compound 0.03 µM, partner dose 0.5 µM) displayed a cell count of 26.6%.

In turn, `N#CC[C@H](C1CCCC1)n1cc(-c2ncnc3[nH]ccc23)cn1` [ruxolitinib] + O=c1[nH]nc(Sc2ncc([N+](=O)[O-])s2)n1-c1ccc2c(c1)OCCO2 [BI78D3] (first compound 5 µM, partner dose 1 µM) gave a cell count of 70.4%.

In turn, `CC[C@]1(O)C[C@H]2CN(CCc3c([nH]c4ccccc34)[C@@](C(=O)OC)(c3cc4c(cc3OC)N(C=O)[C@H]3[C@@](O)(C(=O)OC)[C@H](OC(C)=O)[C@]5(CC)C=CCN6CC[C@]43[C@@H]65)C2)C1` [vincristine] + CC(=O)c1c(C)c2cnc(Nc3ccc(N4CCNCC4)cn3)nc2n(C2CCCC2)c1=O [palbociclib] (first compound 0.0005 µM, partner dose 0.2 µM) had a cell count of 9.72%.

Regarding `Cc1cc(Nc2cc(N3CCN(C)CC3)nc(Sc3ccc(NC(=O)C4CC4)cc3)n2)n[nH]1` [Tozasertib] + CO[C@H]1C[C@@H]2CC[C@@H](C)[C@@](O)(O2)C(=O)C(=O)N2CCCC[C@H]2C(=O)O[C@H]([C@H](C)C[C@@H]2CC[C@@H](OCCO)[C@H](OC)C2)CC(=O)[C@H](C)/C=C(\C)[C@@H](O)[C@@H](OC)C(=O)[C@H](C)C[C@H](C)/C=C/C=C/C=C/1C [everolimus] (first compound 0.03 µM, partner dose 0.1 µM), the cell count turned out to be 58.3%.

For `Cc1cc(Nc2cc(N3CCN(C)CC3)nc(Sc3ccc(NC(=O)C4CC4)cc3)n2)n[nH]1` [Tozasertib] + COc1cc(Nc2ncc(F)c(Nc3ccc4c(n3)NC(=O)C(C)(C)O4)n2)cc(OC)c1OC [Tamatinib] (first compound 0.03 µM, partner dose 2 µM), the cell count stood at 75.6%.
